Measured values from the supplement of paper PMC4967469.
A lower IC50 marks a more sensitive line; fits outside the tested doses are given as limits. AUC is the area under the same curve over the 256-fold range up to the top dose, as a fraction; values near 1 show little effect. For some assays here: An inferred top dose comes from the curve model; the source does not state it.

Experiments:
Assay in all cases: Viability of human cancer cell lines after 72 h of drug (GDSC screen)
piperlongumine = compound: COc1cc(/C=C/C(=O)N2CCC=CC2=O)cc(OC)c1OC [piperlongumine]; details: top dose 10 µM
Experimental: (§1)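 Human cancer cell lines in 384-well plates, medium with 10% serum, drug for 72 h over a 256-fold dose range (nine 2-fold or five 4-fold steps up to the top dose). Adherent lines were fixed and stained with the nucleic acid dye Syto60, suspension lines read with resazurin; signal relative to control wells, capped at 0 and 100%. One two-parameter sigmoid per drug and line, fitted in a mixed model over all curves with the slope shared within a line.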

GW 441756 = compound: Cn1cc(/C=C2\C(=O)Nc3cccnc32)c2ccccc21 [GW 441756]; details: top dose 2 µM; top dose inferred
Experimental: as §1

ABT-263 = compound: CC1(C)CCC(c2ccc(Cl)cc2)=C(CN2CCN(c3ccc(C(=O)NS(=O)(=O)c4ccc(N[C@H](CCN5CCOCC5)CSc5ccccc5)c(S(=O)(=O)C(F)(F)F)c4)cc3)CC2)C1 [ABT-263]; details: top dose 2 µM; top dose inferred
Experimental: as §1

PIK-93 = compound: CC(=O)Nc1nc(C)c(-c2ccc(Cl)c(S(=O)(=O)NCCO)c2)s1 [PIK-93]; details: top dose 20 µM
Experimental: as §1

Salubrinal = compound: O=C(/C=C/c1ccccc1)NC(NC(=S)Nc1cccc2cccnc12)C(Cl)(Cl)Cl [Salubrinal]; details: top dose 16 µM; top dose inferred
Experimental: as §1

GW843682X = compound: COc1cc2ncn(-c3cc(OCc4ccccc4C(F)(F)F)c(C(N)=O)s3)c2cc1OC [GW843682X]; details: top dose 0.256 µM
Experimental: as §1

Cell Line	AUC (piperlongumine)	IC50 (piperlongumine)	AUC (GW 441756)	IC50 (GW 441756)	AUC (ABT-263)	IC50 (ABT-263)	AUC (PIK-93)	IC50 (PIK-93)	AUC (Salubrinal)	IC50 (Salubrinal)	AUC (GW843682X)	IC50 (GW843682X)
MPP-89 (mesothelioma, adherent)	0.774	5190 nM	0.962	> 2000 nM	0.863	> 2000 nM	0.747	8100 nM	0.865	> 16000 nM	0.797	165 nM
OCI-M1 (acute myeloid leukaemia, suspension)	0.848	4940 nM	0.995	> 2000 nM	0.791	675 nM	0.861	10800 nM	0.986	> 16000 nM	0.633	33.8 nM
MEG-01 (chronic myeloid leukaemia, suspension)	0.732	2730 nM	0.986	> 2000 nM	0.618	259 nM	0.85	13800 nM	0.908	> 16000 nM	0.667	45.3 nM
RH-1 (rhabdomyosarcoma, adherent)	0.722	2340 nM	0.984	> 2000 nM	0.982	> 2000 nM	0.534	1520 nM	0.956	> 16000 nM	0.74	67.2 nM
LXF-289 (lung adenocarcinoma, adherent)	0.779	4020 nM	0.919	> 2000 nM	0.958	> 2000 nM	0.938	> 20000 nM	0.858	12800 nM	0.478	13.9 nM
MOLT-13 (T-cell lymphoblastic leukaemia, suspension)	0.773	3420 nM	0.99	> 2000 nM	0.382	62 nM	0.763	6390 nM	0.906	> 16000 nM	0.401	8.85 nM
NB-4 (acute myeloid leukaemia, suspension)	0.658	1560 nM	0.991	> 2000 nM	0.857	1180 nM	0.21	218 nM	0.843	8470 nM	0.237	3.32 nM
NCI-H1838 (lung adenocarcinoma, adherent)	0.836	8770 nM	0.969	> 2000 nM	0.952	> 2000 nM	0.96	> 20000 nM	0.879	> 16000 nM	0.976	> 256 nM
SK-N-FI (neuroblastoma, adherent)	0.742	3060 nM	0.931	> 2000 nM	0.978	> 2000 nM	0.972	> 20000 nM	0.976	> 16000 nM	0.842	179 nM
VCaP (prostate, adherent)	0.786	4500 nM	0.987	> 2000 nM	0.986	> 2000 nM	0.711	5050 nM	0.901	> 16000 nM	0.707	62.8 nM
BE-13 (lymphoblastic leukaemia, suspension)	0.809	4820 nM	0.984	> 2000 nM	0.273	29.7 nM	0.617	2570 nM	0.809	7690 nM	0.231	2.84 nM
DMS-114 (small cell lung carcinoma, adherent)	0.811	6310 nM	0.939	> 2000 nM	0.974	> 2000 nM	0.657	3670 nM	0.969	> 16000 nM	0.719	74.2 nM
NCI-H1395 (lung adenocarcinoma, adherent)	0.929	> 10000 nM	0.958	> 2000 nM	0.981	> 2000 nM	0.889	> 20000 nM	0.841	> 16000 nM	0.842	> 256 nM
697 (lymphoblastic leukaemia, suspension)	0.662	1590 nM	0.978	> 2000 nM	0.508	131 nM	0.382	636 nM	0.64	2240 nM	0.424	10.4 nM
GAK (melanoma, adherent)	0.824	5570 nM	0.964	> 2000 nM	0.99	> 2000 nM	0.902	> 20000 nM	0.925	> 16000 nM	0.835	156 nM
DMS-79 (small cell lung carcinoma, suspension)	0.962	> 10000 nM	0.986	> 2000 nM	0.579	214 nM	0.914	> 20000 nM	0.977	> 16000 nM	0.924	> 256 nM
EB2 (Burkitt lymphoma, suspension)	0.838	5860 nM	0.99	> 2000 nM	0.989	> 2000 nM	0.37	568 nM	0.979	> 16000 nM	0.96	> 256 nM
CTV-1 (acute myeloid leukaemia, suspension)	0.84	5000 nM	0.923	> 2000 nM	0.992	> 2000 nM	0.621	2510 nM	0.932	> 16000 nM	0.418	9.98 nM
CMK (acute myeloid leukaemia, suspension)	0.819	4580 nM	0.991	> 2000 nM	0.732	505 nM	0.662	3260 nM	0.892		0.508	16.8 nM
NCI-H847 (small cell lung carcinoma, adherent)	0.812	4150 nM	0.922	> 2000 nM	0.347	51.5 nM	0.551	1670 nM	0.975	> 16000 nM	0.472	13.6 nM
YT (lymphoid neoplasm, suspension)	0.834	5160 nM	0.898	1830 nM	0.464	102 nM	0.787	7310 nM	0.991	> 16000 nM	0.992	> 256 nM

Cell Line	AUC (piperlongumine)	IC50 (piperlongumine)	AUC (GW 441756)	IC50 (GW 441756)	AUC (ABT-263)	IC50 (ABT-263)	AUC (PIK-93)	IC50 (PIK-93)	AUC (Salubrinal)	IC50 (Salubrinal)	AUC (GW843682X)	IC50 (GW843682X)
L-540 (Hodgkin lymphoma, suspension)	0.732	2620 nM	0.963	> 2000 nM	0.96	> 2000 nM	0.783	7430 nM	0.871	12200 nM	0.799	107 nM
KY821 (leukaemia, suspension)	0.836	5450 nM	0.987	> 2000 nM	0.28	32.8 nM	0.942	> 20000 nM	0.953	> 16000 nM	0.445	11.6 nM
ES5 (Ewing sarcoma, adherent)	0.828	7450 nM	0.925	> 2000 nM	0.81	1250 nM	0.41	680 nM	0.98	> 16000 nM	0.957	> 256 nM
D-336MG (glioma, adherent)	0.75	4100 nM	0.973	> 2000 nM	0.966	> 2000 nM	0.86	> 20000 nM	0.873	> 16000 nM	0.828	224 nM
MHH-PREB-1 (B-cell leukaemia, suspension)	0.623	1310 nM	0.986	> 2000 nM	0.989	> 2000 nM	0.375	588 nM	0.79	6320 nM	0.538	20.1 nM
COR-L88 (small cell lung carcinoma, adherent)	0.976	> 10000 nM	0.968	> 2000 nM	0.688	469 nM	0.933	> 20000 nM	0.936	> 16000 nM	0.696	63.8 nM
SK-PN-DW (Ewing sarcoma, adherent)	0.788	4580 nM	0.933	> 2000 nM	0.872	> 2000 nM	0.771	7960 nM	0.943	> 16000 nM	0.66	45.3 nM
NCI-H1836 (small cell lung carcinoma, suspension)	0.894	> 10000 nM	0.988	> 2000 nM	0.665	378 nM	0.968	> 20000 nM	0.967	> 16000 nM	0.79	127 nM
ST486 (Burkitt lymphoma, suspension)	0.797	4130 nM	0.99	> 2000 nM	0.787	762 nM	0.275	314 nM	0.843	9490 nM	0.463	12.9 nM
COLO-800 (melanoma, adherent)	0.745	3070 nM	0.985	> 2000 nM	0.974	> 2000 nM	0.928	> 20000 nM	0.978	> 16000 nM	0.988	> 256 nM
LP-1 (myeloma, suspension)	0.823	4610 nM	0.993	> 2000 nM	0.923	> 2000 nM	0.408	733 nM	0.719	3660 nM	0.697	51 nM
D-247MG (glioma, adherent)	0.878	> 10000 nM	0.98	> 2000 nM	0.822	1790 nM	0.572	2120 nM	0.862	> 16000 nM	0.89	> 256 nM
U-87-MG (glioma, adherent)	0.805	6150 nM	0.984	> 2000 nM	0.984	> 2000 nM	0.784	10100 nM	0.965	> 16000 nM	0.981	> 256 nM
HUTU-80 (digestive system, adherent)	0.838	5150 nM	0.947	> 2000 nM	0.991	> 2000 nM	0.81	8410 nM	0.86	9860 nM	0.574	24.6 nM
DU-4475 (breast, suspension)	0.847	5410 nM	0.992	> 2000 nM	0.786	699 nM	0.789	7120 nM	0.875	10900 nM	0.686	47.4 nM
DG-75 (Burkitt lymphoma, suspension)	0.739	3040 nM	0.971	> 2000 nM	0.931	> 2000 nM	0.845	14700 nM	0.896	> 16000 nM	0.669	47.6 nM
HCC1187 (breast, suspension)	0.788	4140 nM	0.45	91.9 nM	0.978	> 2000 nM	0.709	4680 nM	0.932	> 16000 nM	0.678	48.9 nM
GR-ST (lymphoblastic leukaemia, suspension)	0.695	2490 nM	0.978	> 2000 nM	0.974	> 2000 nM	0.436	804 nM	0.904	> 16000 nM	0.651	46.1 nM
ATN-1 (T-cell lymphoblastic leukaemia, suspension)	0.918	> 10000 nM	0.709	463 nM	0.049	< 7.81 nM	0.584	2090 nM	0.844	10400 nM	0.48	14.2 nM
ALL-PO (lymphoblastic leukaemia, suspension)	0.804	5370 nM	0.858	1790 nM	0.064	< 7.81 nM	0.35	468 nM	0.709	4040 nM	0.329	5.18 nM
L-428 (Hodgkin lymphoma, suspension)	0.927	> 10000 nM	0.992	> 2000 nM	0.802	846 nM	0.912	> 20000 nM	0.894	15200 nM	0.72	61.4 nM
